Like-named read-outs stand apart in the source and are kept apart here.
Assays:
[1] = Circular dichroism (CD) spectroscopy, variable temperature measurement; type: physicochemical; details: His6-tagged Z variants in PBS; VTM to 80° C.
Description: Circular dichroism (CD) spectroscopy analysis: Two purified Z variants with a C-terminal cysteine, Z15168-Cys (SEQ ID NO:809) and Z15169-Cys (SEQ ID NO:810), were diluted to 0.5 mg/ml in 20 mM HEPES, 1 mM EDTA, pH 7.2. For each diluted Z variant, a CD spectrum at 250-195 nm was obtained at 20° C. In addition, a variable temperature measurement (VTM) was performed to determine the melting temperature (Tm). In the VTM, the absorbance was measured at 221 nm while the temperature was raised from 20 to 90° C., with a temperature slope of 5° C./min. A new CD spectrum was obtained at 20° C. after the heating procedure in order to study the refolding ability of the Z variants. The CD measurements were performed on a Jasco J-810 spectropolarimeter (Jasco Scandinavia AB) using a cell with an optical path length of 1 mm.
Circular dichroism (CD) spectroscopy analysis: A subset of the purified Hiss-tagged Z variants were analyzed by CD spectroscopy as described in Example 3, but with the exceptions that the analysis buffer was PBS and that the temperature was raised to 80° C. in the VTM.

[2] = biological target: T1, hPD-L1 binding to hPD-1 (Homo sapiens, UniProt Q9NZQ7); assay: AlphaLISA blocking assay (Example 7); details: His6-tagged Z variants 250 nM to 4 pM; 8 nM biotinylated hPD-L1; read-out: IC50 AlphaLISA (M), blocking the PD-1/PD-L1 interaction
T1 construct: 1086-PD-050 (hPD-1)
T1 sequence (Q9NZQ7 19-239 limits assumed): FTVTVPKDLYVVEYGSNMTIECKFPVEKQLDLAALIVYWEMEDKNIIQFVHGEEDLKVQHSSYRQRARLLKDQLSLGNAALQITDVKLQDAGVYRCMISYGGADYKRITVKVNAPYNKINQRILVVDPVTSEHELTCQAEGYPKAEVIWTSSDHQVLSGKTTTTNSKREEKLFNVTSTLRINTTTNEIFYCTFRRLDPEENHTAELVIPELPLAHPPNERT
Description: AlphaLISA blocking assay: The potential of Z variants to inhibit binding of PD-L1 to PD-1 was analyzed by AlphaLISA and recordings in an EnSpire multiplate reader 2300 (Perkin Elmer). hPD-1 (human PD-1 Fc-chimera; R&D Systems, cat. no. 1086-PD-050) was immobilized on AlphaLISA Acceptor beads (Perkin Elmer, cat. no. 6772002) according to the manufacturer's recommendations. […] Finally, streptavidin coated Donor beads (Perkin Elmer, cat. no. 6772002) were added to a final concentration of 40 μg/ml and incubated for 30 min. All incubations were performed at RT in the dark. The plate was analyzed in the EnSpire instrument and the IC50 values were calculated using GraphPad Prism 5.
Exception 2: hPD-1-coated Acceptor beads were added to a final concentration of 10 μg/ml and incubated for 50 min.

[3] = biological target: hPD-L1 (Homo sapiens, UniProt Q9NZQ7); assay: Biacore kinetic analysis of maturated Z variants, hPD-L1; type: binding
Chain of hPD-L1 (Q9NZQ7 19-290): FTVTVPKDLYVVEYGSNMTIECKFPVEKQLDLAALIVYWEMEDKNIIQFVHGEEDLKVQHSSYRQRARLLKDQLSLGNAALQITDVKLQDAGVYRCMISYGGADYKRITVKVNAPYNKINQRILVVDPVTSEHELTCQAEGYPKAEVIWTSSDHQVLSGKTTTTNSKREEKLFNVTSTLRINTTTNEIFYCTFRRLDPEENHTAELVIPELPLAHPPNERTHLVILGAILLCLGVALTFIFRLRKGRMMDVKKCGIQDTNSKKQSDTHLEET
Description: (§1) hPD-L1, hPD-L2, hB7-H3, hB7-H4 and mPD-L1 were immobilized in separate flow cells on the carboxylated dextran layer of different CM5 chip surfaces (GE Healthcare, cat. no. BR100012). The immobilization was performed using amine coupling chemistry according to the manufacturer's protocol and using HBS-EP as running buffer (0.01 M HEPES pH 7.4, 0.15 M NaCl, 3 mM EDTA, 0.005% v/v Surfactant P20, GE Healthcare, cat. no. BR100188). […] One flow cell surface on each chip was activated and deactivated for use as blank during analyte injections. In the kinetic experiment, HBS-EP was used as running buffer and the flow rate was 50 μl/min. The analytes, i.e. the Z variants, were each diluted in HBS-EP buffer within a concentration range of 1000 to 0.01 nM and injected for 5 min, followed by dissociation in running buffer for 15-25 min. After dissociation, the surfaces were regenerated with one or two injections of 0.1% SDS. Kinetic constants were calculated from the sensorgrams using the Langmuir 1:1 model of BiaEvaluation software 4.1 (GE Healthcare).
(§2) Biacore kinetic and specificity analysis: Kinetic constants (ka and kd) and affinities (KD) for human PD-L1 and rhesus monkey PD-L1 (RhPD-L1; rhesus PD-L1/Fc Chimera, Sino Biological Inc., cat. no. 90251-C02H) were determined for 24 matured Hiss-tagged Z variants (specified in Example 6). The Z variants were also tested for binding against the sequence-related proteins hPD-L2, hB7-H3 and hB7-H4. The Biacore analyses were performed essentially as described in Example 3, however a flow rate of 30 μl/min was used. […] In a first binding kinetic analysis, the 24 Z variants were injected at concentrations of 5 and 50 nM over chips immobilized with hPD-L1 and RhPD-L1, respectively. […] In the specificity test, i.e. the binding analysis against hPD-L2, hB7-H3 and hB7-H4, the 24 Z variants were injected at a concentration of 500 nM.

[4] = tested on: RhPD-L1; assay: Biacore kinetic analysis of maturated Z variants, RhPD-L1; type: binding, rhesus monkey
Description: as §1, §2

[5] = His6-tagged Z variants at 135, 45, 15, 5 and 1.67 nM
[6] = His6-tagged Z variants at 135, 45, 15, 5 and 1.67 nM, read-out: hPD-L1 KD
[7] = ranking experiment, His6-tagged Z variants at 5 and 50 nM, 1:1 model, read-out: hPD-L1 KD (M), approximate affinity constant
[8] = His6-tagged Z variants at 135, 45, 15, 5 and 1.67 nM, read-out: RhPD-L1 KD
[9] = ranking experiment, His6-tagged Z variants at 5 and 50 nM, 1:1 model, read-out: RhPD-L1 KD (M), approximate affinity constant

Row | IC50 [2] [M] | hPD-L1 ka [3, 5] [M⁻¹ s⁻¹] | hPD-L1 kd [3, 5] [s⁻¹] | Kd [3, 6] [M] | Kd [3, 7] [M] | RhPD-L1 kd [4, 5] [s⁻¹] | Kd [4, 8] [M] | Kd [4, 9] [M] | Substance | Tm (° C.) [1] [°C] | RhPD-L1 ka [4, 5] [M⁻¹ s⁻¹]
1 | 1.3e-09 | – | – | – | – | – | – | – | Z17746: maturated PD-L1 binding Z variant (VDAKYAKERNEAAYEILYLPNLTNAQKWAFIWKLDDDPSQSSELLSEAKKLNDSQAPK; Engineered PD-L1 binding polypeptide) | 59 | –
2 | 3.9e-10 | 3.5e+06 | 0.00043 | 1.3e-10 | 1.3e-10 | 0.00034 | 9.6e-11 | 1.5e-09 | Z18064: maturated PD-L1 binding Z variant (VDAKYAKERNKAAYEILYLPNLTNAQKWAFIWKLDDDPSQSSELLSEAKKLNDSQAPK; Engineered PD-L1 binding polypeptide) | 62 | 3.5e+06
3 | – | – | – | – | 5.3e-10 | – | – | 9.6e-10 | Z18149: maturated PD-L1 binding Z variant (VDAKYAKERNNAAYEILYLPNLTQAQKWAFIWKLDDDPSQSSELLSEAKKLNDSQAPK; Engineered PD-L1 binding polypeptide) | – | –
4 | 1.6e-10 | 2e+06 | 0.00047 | 2.4e-10 | 2.5e-10 | 0.00039 | 2.1e-10 | 1.2e-09 | Z17825: maturated PD-L1 binding Z variant (VDAKYAKERNLAAYEILYLPNLTNAQKWAFIWKLDDDPSQSSELLSEAKKLNDSQAPK; Engineered PD-L1 binding polypeptide) | 60 | 1.9e+06
5 | 3.1e-10 | – | – | – | – | – | – | – | Z18022: maturated PD-L1 binding Z variant (VDAKYAKERNSAAYEILYLPNLTNQQKWAFIWKLDDDPSQSSELLSEAKKLNDSQAPK; Engineered PD-L1 binding polypeptide) | 59 | –
6 | – | – | – | – | 5.4e-10 | – | – | – | Z17972: maturated PD-L1 binding Z variant (VDAKYAKERNIAAYEILYLPNLTNNQKWAFIWKLDDDPSQSSELLSEAKKLNDSQAPK; Engineered PD-L1 binding polypeptide) | – | –
7 | 8.9e-09 | 2.1e+06 | 0.00043 | 2.1e-10 | 3e-10 | 0.00038 | 1.1e-10 | 2e-09 | Z17964: maturated PD-L1 binding Z variant (VDAKYAKERNAAAYEILYLPNLTNAQKWAFIWKLDDDPSQSSELLSEAKKLNDSQAPK; Engineered PD-L1 binding polypeptide) | 62 | 3.4e+06
8 | 1.1e-09 | – | – | – | – | – | – | 1.2e-09 | Z18054: maturated PD-L1 binding Z variant (VDAKYAKERNDAAFEILYLPNLTQAQIWAFIWKLDDDPSQSSELLSEAKKLNDSQAPK; Engineered PD-L1 binding polypeptide) | – | –
9 | 8.6e-10 | – | – | – | – | – | – | – | Z18070: maturated PD-L1 binding Z variant (VDAKYAKERNAAAYEILYLPNLTNHQKWAFIWKLDDDPSQSSELLSEAKKLNDSQAPK; Engineered PD-L1 binding polypeptide) | 60 | –
10 | 3.4e-10 | – | – | – | 4.5e-10 | – | – | 1.2e-09 | Z18052: maturated PD-L1 binding Z variant (VDAKYAKERNIAAYEILYLPNLTQSQIWAFIWKLDDDPSQSSELLSEAKKLNDSQAPK; Engineered PD-L1 binding polypeptide) | – | –
11 | 1.5e-10 | – | – | – | 7.2e-10 | – | – | 4.4e-09 | Z18233: maturated PD-L1 binding Z variant (VDAKYAKERNTAAQEILYLPNLTQGQKWAFIWKLDDDPSQSSELLSEAKKLNDSQAPK; Engineered PD-L1 binding polypeptide) | 57 | –
12 | 1.1e-09 | 1.7e+06 | 0.00057 | 3.4e-10 | 4.5e-10 | 0.00051 | – | – | Z17748: maturated PD-L1 binding Z variant (VDAKYAKERNAAAYEILYLPNLTQSQKWAFIWKLDDDPSQSSELLSEAKKLNDSQAPK; Engineered PD-L1 binding polypeptide) | 63 | 1.8e+06
13 | 1.5e-09 | – | – | – | – | – | 1.7e-10 | 2.1e-09 | Z17756: maturated PD-L1 binding Z variant (VDAKYAKERNAAAFEILYLPNLTNAQKWAFIWKLDDDPSQSSELLSEAKKLNDSQAPK; Engineered PD-L1 binding polypeptide) | 63 | –
14 | 6.7e-10 | – | – | – | 5.1e-10 | – | – | 2.3e-09 | Z18090: maturated PD-L1 binding Z variant (VDAKYAKERNDAAYEILYLPNLTNQQKWAFIWKLADDPSQSSELLSEAKKLNDSQAPK; Engineered PD-L1 binding polypeptide) | 68 | –
15 | 6.2e-10 | – | – | – | 9.3e-10 | – | – | – | Z18101: maturated PD-L1 binding Z variant (VDAKYAKERNSAAYEILYLPNLTNLQKWAFIWKLDDDPSQSSELLSEAKKLNDSQAPK; Engineered PD-L1 binding polypeptide) | – | –
16 | 6e-10 | – | – | – | – | – | – | 1.2e-09 | Z18129: maturated PD-L1 binding Z variant (VDAKYAKERNSAAYEILYLPNLTQAQKWAFIWKLDDDPSQSSELLSEAKKLNDSQAPK; Engineered PD-L1 binding polypeptide) | 63 | –
17 | 5.7e-10 | – | – | – | 1.9e-09 | – | – | 4.1e-09 | Z18418: maturated PD-L1 binding Z variant (VDAKYAKERNEAAYEILHLPNLTSYQHWAFIWKLDDDPSQSSELLSEAKKLNDSQAPK; Engineered PD-L1 binding polypeptide) | – | –
18 | 7.2e-10 | – | – | – | 4.6e-10 | – | – | 1.6e-09 | Z18353: maturated PD-L1 binding Z variant (VDAKYAKERNEAAYEILYLPNLTQAQKWAFIWKLDDDPSQSSELLSEAKKLNDSQAPK; Engineered PD-L1 binding polypeptide) | – | –
19 | 8.3e-10 | – | – | – | – | – | 3.5e-10 | 2.1e-09 | Z18066: maturated PD-L1 binding Z variant (VDAKYAKERNEAAYEILYLPNLTNSQKWAFIWKLDDDPSQSSELLSEAKKLNDSQAPK; Engineered PD-L1 binding polypeptide) | 58 | –
20 | – | – | – | – | 6.3e-10 | – | – | 1.9e-09 | Z18039: maturated PD-L1 binding Z variant (VDAKYAKERNEAAYEILYLPNLTQSQIWAFIWKLDDDPSQSSELLSEAKKLNDSQAPK; Engineered PD-L1 binding polypeptide) | 55 | –
